Data from PubChem BioAssay AID504832 (National Center for Advancing Translational Sciences (NCATS), 2011).
Values joined by “and” are separate entries in the source; they are usually repeats but may differ in a detail not shown here. Equal entries are not always repeated. About 18,000 (5.8%) of roughly 310,000 compounds were called active. This list was built around the results that the source calls inconclusive (neither active nor inactive); the mix of calls is not that of the screen. Calls come from the whole dose curve; as a rule, active = well fitted inhibition curve with a large enough effect; inconclusive = small, poorly fitted or top-dose-only effect, or another doubt; inactive = no such curve, though single readings can be large or run the other way. No potency is given beside an inconclusive call; the fits are too rough. Non-standard residues stand in square brackets, D forms with d. Residues, ends and D or L forms follow the SMILES beside them. ξ: configuration not given here. *: point of attachment. ξY = NC(Cc1ccc(O)cc1)C(=O)O; Cbz = O=C(OCc1ccccc1)*; OtBu = CC(C)(C)O*; tBu = CC(C)(C)*

assay: Primary qHTS for delayed death inhibitors of the malarial parasite plastid, 48 hour incubation; details: P. falciparum luciferase growth in erythrocytes; series mostly up to 28.7 µM
Method in brief: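 Luciferase-expressing parasites in RBCs, 2% Hct / 0.1% parasitemia final; RPMI 1640 + 0.5% Albumax; 37 C, 5% CO2, one generation; luminescence read-out, lower signal = inhibition.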
Potency is the fitted concentration of half-maximal effect; tags give direction and shape of the fitted curve.

SMILES	Potency
N#C/C(C(=O)NCc1ccccc1)=C1/SC(Cc2ccc(Cl)cc2)C(=O)N1c1ccccc1 (stereo unspecified)	inconclusive [inhibitor, partial curve, poor fit]
O=C1/C(=C/c2cccnc2)SC(=S)N1CCc1ccccc1	inconclusive [inhibitor, single point]
CC1(C)CC(=O)C/C(=N/NC(=O)COc2ccc3ccccc3c2Br)C1	inconclusive [inhibitor, single point]
CC(C)N=C(NC#N)SCc1ccc(F)cc1	inconclusive [inhibitor, partial curve]
CN(C)c1ccc(/C=C/c2nc3ccccc3c(=O)n2-c2ccc(C(=O)O)cc2)cc1	inconclusive [inhibitor, partial curve]
CN1CCN(C(c2ccc(Br)cc2)c2cc(Cl)c3cccnc3c2O)CC1 (stereo unspecified)	active: 11.7 µM
O=C(Nc1ccc(S(=O)(=O)N2CCCC2)cc1)c1ccc(OCC2CCCO2)cc1 (stereo unspecified)	inconclusive [inhibitor, single point]
CC(C)CCNC(=O)CN(Cc1ccco1)C(=O)CCC(=O)Nc1nccs1	inactive
COc1ccc(NC(=O)NNC(=O)c2ccc(Cl)cc2Cl)cc1OC	inconclusive [inhibitor, single point]
O=C(O)c1ccc(Cl)c(NCc2cccs2)c1	inactive
COc1cc(C(=O)NCCC2=CCCCC2)ccc1OC1CCN(C(C)=O)CC1	inconclusive [inhibitor, partial curve]
CN(CC(=O)Nc1ccccc1C(F)(F)F)C(=O)c1ccccc1Sc1ccccc1C#N	inconclusive [inhibitor, single point]
CCOc1ccc(C(=O)NCC(=O)N2CC=C(c3ccccc3)CC2)cc1OCC	inconclusive [inhibitor, single point]
CC(NS(=O)(=O)c1ccccc1)C(c1cccs1)N1CCOCC1 (stereo unspecified)	inactive
CN(Cc1ccccc1)S(=O)(=O)c1ccccc1[N+](=O)[O-]	inactive
CN1CCC(N(C)C(=O)c2ccc(Cl)c(S(=O)(=O)Nc3cc(Cl)ccc3Cl)c2)CC1	inconclusive [inhibitor, single point]
COc1ccc(NC(=O)CCN2C(=O)C3CC=C(Cl)CC3C2=O)cc1 (stereo unspecified)	inactive
Cn1c(=O)c2ncn(CC(=O)O)c2n(C)c1=O	inactive
COc1ccc(CCn2ccc(O)c(Cc3ccc(Cl)cc3)c2=O)cc1OC	inconclusive [inhibitor, partial curve]
COc1cc(NC(=O)COc2cccc(OC)c2)cc(OC)c1	inactive
CCOC(=S)SCC(=O)Nc1ncc(C)s1	inactive
Cc1cccc(N(CC(=O)NC2CCCCC2)C(=O)CCCC(=O)Nc2ccccn2)c1C	inactive
COc1ccc(-c2c(C#N)c(N)nc3c2CCC3)cc1	inconclusive [inhibitor, partial curve, poor fit]
O=C(Nc1cccc(-n2cnnn2)c1)c1ccc(C(F)(F)F)cc1	inconclusive [inhibitor, single point]

SMILES	Potency
CC(C)(C)c1ccc(S(=O)(=O)N2CCCC2C(=O)NC2=NCCS2)cc1 (stereo unspecified)	inconclusive [inhibitor, single point]
COc1ccc(-c2nc(CS(=O)CC(=O)N3CCN(C)CC3)c(C)o2)cc1 (stereo unspecified)	inconclusive [inhibitor, full curve, poor fit]
O=C(c1ccc(Br)o1)N1CCC(c2nc3ccccc3[nH]2)CC1	inconclusive [inhibitor, single point]
Cc1ccccc1Nc1nnc(SCC(=O)NC2CCCc3ccccc32)s1 (stereo unspecified)	inconclusive [inhibitor, single point]
COc1nc(NCCC2=CCCCC2)nc(OC)n1	active: 10.4 µM
Cc1c(C(=O)Nc2ccc(S(=O)(=O)Nc3ncccn3)cc2)oc2ccccc12	inconclusive [inhibitor, partial curve]
Cc1cc(C)c(N(C(=O)Cn2nnc3ccccc32)C(C(=O)NC(C)(C)C)c2ccsc2)c(C)c1 (stereo unspecified)	inconclusive [inhibitor, full curve]
COc1ccccc1/C=C/CN1CCCC(CO)(CCc2ccccc2)C1 (stereo unspecified)	inconclusive [inhibitor, single point]
Cc1cc(NCCCn2ccnc2)n2nc(-c3ccc(Cl)cc3)cc2n1	active: 2.62 µM
Cc1ccc(S(=O)(=O)N(C)c2ccc(OC(C)C(=O)N(C)c3ccccc3)cc2)cc1 (stereo unspecified)	inconclusive [inhibitor, single point]
CCOc1ccc(CN2CCN(Cc3cnn(CC)c3C)CC2CCO)cc1 (stereo unspecified)	inconclusive [inhibitor, partial curve, poor fit]
O=C(Nc1ccccn1)c1ccc(Cl)c(S(=O)(=O)N2CCc3ccccc32)c1	inconclusive [inhibitor, single point]
CCN(CC)S(=O)(=O)c1cccc(C(=O)N/N=C/c2ccccn2)c1	inconclusive [inhibitor, single point]
CC(=O)C1=C(C)NC(SCC(N)=O)=C(C#N)C1c1ccco1 (stereo unspecified)	inactive
c1ccc(-c2ccc(C(c3ccccc3)n3ccnc3)cc2)cc1 (stereo unspecified)	active: 13.5 µM and active: 2.08 µM
Oc1c(Cl)cc(Cl)c2cccnc12	active: 8.49 µM
Cc1c2c(nc3nnnn13)CCCC2	inactive
CCNC(=S)N/N=C(\C)c1ccc2ccccc2c1OC(F)F	active: 10.4 µM
CC(=O)c1sc(Nc2nc3ccc(F)cc3s2)nc1C	inactive
O=C(O)c1ccccc1NS(=O)(=O)c1ccc(NNC(=S)Nc2ccc(OC(F)F)cc2)c([N+](=O)[O-])c1	inactive
N=C1SCC(=O)N1c1ncc(Cc2cccc(Cl)c2)s1	inconclusive [inhibitor, single point]
O=S(=O)(Cc1nnnn1-c1ccccc1)c1ccc(Cl)cc1	inconclusive [inhibitor, partial curve]
O=C(NN=C1CCN(Cc2ccccc2)CC1)c1cc2ccccc2cc1O	inconclusive [inhibitor, single point]
Cc1cccc(-n2nc(C)c3c2NC2=C(C(=O)CCC2)C3c2ccccn2)c1 (stereo unspecified)	inconclusive [inhibitor, single point]

SMILES	Potency
C=CCn1c(COc2ccccc2F)nnc1SCC(=O)Nc1cc2oc3ccccc3c2cc1OC	inactive
CCc1ccc(NC(=O)CN2CCCN(S(=O)(=O)c3ccc(F)cc3)CC2)cc1	inactive
CCOC(=O)N1CCC(N(C(=O)Nc2ccc(Cl)c(Cl)c2)C(C)CC)CC1 (stereo unspecified)	inconclusive [inhibitor, single point]
COc1cc2c(cc1O)CC[n+]1cc3c(OC)c(OC)ccc3cc1-2	active: 0.415 µM
COc1ccc([C@H]2CC(=O)C=C(c3ccc(F)cc3OCc3ccccc3)C2)cc1	inconclusive [inhibitor, single point]
CC(C)(C)OC(=O)C(Cc1ccc(OC(C)(C)C)cc1)NC(=O)CNC(=O)OCc1ccccc1 (stereo not drawn) (Cbz-Gly-[ξY](tBu)-OtBu)	inconclusive [inhibitor, partial curve]
Cc1ccc(N(C(=O)Cn2nnc(-c3ccccc3)n2)C(C(=O)NC2CCCCC2)c2ccccn2)cc1C (stereo unspecified)	inconclusive [inhibitor, partial curve, poor fit]
CCOC(=O)c1c(NC(=O)COc2ccccc2)sc2c1CC(C)(C)NC2(C)C	inconclusive [inhibitor, partial curve, poor fit]
COc1ccc(S(=O)(=O)N2CCC(N3CCCCC3)CC2)cc1	inactive
COC(=O)c1c(NC(=O)C(=O)NCC2CCCO2)sc2c1CC(C)(C)OC2 (stereo unspecified)	inconclusive [inhibitor, partial curve, poor fit]
CC(C)CCSc1nc(N2CCOCC2)c2c(c1C#N)CC(C)(C)OC2	active: 9.28 µM
Cc1cc(S(=O)(=O)N2CCN(CC(=O)NCCc3cccs3)CC2)ccc1Br	inconclusive [inhibitor, single point]
Cc1ccccc1OCC(=O)NCCCNC(=O)c1ccccn1	inactive
CCc1nnc(NC(=O)CSc2nnc(COc3ccccc3)n2-c2ccc(C)cc2)s1	inactive
CN(C)CCC(c1ccc(Br)cc1)c1ccccn1 (stereo unspecified)	inconclusive [inhibitor, single point]
CN(C)c1nc(-c2cccnc2)nc(-c2ccccc2)c1C#N	inconclusive [inhibitor, single point]
Oc1ccc(C[C@@H]2CNCCN2CCc2cccc(F)c2)cc1	inconclusive [inhibitor, single point]
Cc1ccc(Cl)cc1NC(=O)Cn1cc(C(F)(F)F)cc(Cl)c1=O	inconclusive [inhibitor, single point]
C/C(=N\NC(=O)COc1ccc([N+](=O)[O-])cc1)C(C)(C)C	inactive
Cc1cc(C)nc(NC(=O)CN2C(=O)c3ccccc3S2(=O)=O)n1	inactive
CC1CC(C)(C)NC(=S)N1CCCC(=O)Nc1ccc(F)c(F)c1 (stereo unspecified)	inactive
Cc1cc(C)c(S(=O)(=O)N2CCCCC2CCNC(=O)C(=O)NCc2ccccn2)c(C)c1 (stereo unspecified)	inconclusive [inhibitor, single point]
COc1cc(/C=N\NC(=O)c2ccc(-c3ccccc3)cc2)cc(OC)c1O	active: 9.28 µM
